Laboratory results: PMC9911399, “Two distinct binding modes provide the RNA-binding protein RbFox with extraordinary sequence specificity”
Changes are numbered by the printed parent chain; changes in the protein carry UniProt numbers. This is one part of the list.

T1: RBFOX1 RRM (Homo sapiens, UniProt Q9NWB1 109-208)
T1 sequence: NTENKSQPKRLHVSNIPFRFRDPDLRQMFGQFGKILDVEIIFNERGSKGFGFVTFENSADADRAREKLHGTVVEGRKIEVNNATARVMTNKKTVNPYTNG

B1: ACUCGUA (DNA:RNA)
RNA: GGGAGACCGGAAUUCAGAUUGUCCACUCGUAUUAAAUCCCGUCGUAGCCACCA
DNA 1: CAATCTGAATTCCGGTCTCCC
DNA 2: TGGTGGCTACGACGGGATT
B2: GUGACUU (DNA:RNA)
RNA: B1 RNA with A25G, C26U, U27G, C28A, G29C, A31U
DNA 1: CAATCTGAATTCCGGTCTCCC
DNA 2: TGGTGGCTACGACGGGATT
B3: AUACCGU (DNA:RNA)
RNA: B1 RNA with C26U, U27A, G29C, U30G, A31U
DNA 1: CAATCTGAATTCCGGTCTCCC
DNA 2: TGGTGGCTACGACGGGATT
B4: CUGCCGA (DNA:RNA)
RNA: B1 RNA with A25C, C26U, U27G, G29C, U30G
DNA 1: CAATCTGAATTCCGGTCTCCC
DNA 2: TGGTGGCTACGACGGGATT
B5: AGUCACA (DNA:RNA)
RNA: B1 RNA with C26G, G29A, U30C
DNA 1: CAATCTGAATTCCGGTCTCCC
DNA 2: TGGTGGCTACGACGGGATT
B6: GUUGAAA (DNA:RNA)
RNA: B1 RNA with A25G, C26U, C28G, G29A, U30A
DNA 1: CAATCTGAATTCCGGTCTCCC
DNA 2: TGGTGGCTACGACGGGATT
B7: AACUCUC (DNA:RNA)
RNA: B1 RNA with C26A, U27C, C28U, G29C, A31C
DNA 1: CAATCTGAATTCCGGTCTCCC
DNA 2: TGGTGGCTACGACGGGATT
B8: GAACCCC (DNA:RNA)
RNA: B1 RNA with A25G, C26A, U27A, G29C, U30C, A31C
DNA 1: CAATCTGAATTCCGGTCTCCC
DNA 2: TGGTGGCTACGACGGGATT
B9: UUUACGG (DNA:RNA)
RNA: B1 RNA with A25U, C26U, C28A, G29C, U30G, A31G
DNA 1: CAATCTGAATTCCGGTCTCCC
DNA 2: TGGTGGCTACGACGGGATT
B10: GACACAU (DNA:RNA)
RNA: GGGAGACCGGAAUUCAGAUUGUCCGACACAUUUAAAUCCCGUCGUAGCCACCA
DNA 1: CAATCTGAATTCCGGTCTCCC
DNA 2: TGGTGGCTACGACGGGATT
B11: AACUCGG (DNA:RNA)
RNA: B10 RNA with G25A, A28U, A30G, U31G
DNA 1: CAATCTGAATTCCGGTCTCCC
DNA 2: TGGTGGCTACGACGGGATT
B12: CACUUCA (DNA:RNA)
RNA: B10 RNA with G25C, A28U, C29U, A30C, U31A
DNA 1: CAATCTGAATTCCGGTCTCCC
DNA 2: TGGTGGCTACGACGGGATT
B13: AGGACUG (DNA:RNA)
RNA: B1 RNA with C26G, U27G, C28A, G29C, A31G
DNA 1: CAATCTGAATTCCGGTCTCCC
DNA 2: TGGTGGCTACGACGGGATT
B14: UAUUGGA (DNA:RNA)
RNA: B1 RNA with A25U, C26A, C28U, U30G
DNA 1: CAATCTGAATTCCGGTCTCCC
DNA 2: TGGTGGCTACGACGGGATT
B15: CAAGUGA (DNA:RNA)
RNA: B1 RNA with A25C, C26A, U27A, C28G, G29U, U30G
DNA 1: CAATCTGAATTCCGGTCTCCC
DNA 2: TGGTGGCTACGACGGGATT
B16: AGAGCGG (DNA:RNA)
RNA: B1 RNA with C26G, U27A, C28G, G29C, U30G, A31G
DNA 1: CAATCTGAATTCCGGTCTCCC
DNA 2: TGGTGGCTACGACGGGATT
B17: AGUGUGA (DNA:RNA)
RNA: B1 RNA with C26G, C28G, G29U, U30G
DNA 1: CAATCTGAATTCCGGTCTCCC
DNA 2: TGGTGGCTACGACGGGATT
B18: CUUCAAG (DNA:RNA)
RNA: B1 RNA with A25C, C26U, G29A, U30A, A31G
DNA 1: CAATCTGAATTCCGGTCTCCC
DNA 2: TGGTGGCTACGACGGGATT
B19: UUUCCAC (DNA:RNA)
RNA: B1 RNA with A25U, C26U, G29C, U30A, A31C
DNA 1: CAATCTGAATTCCGGTCTCCC
DNA 2: TGGTGGCTACGACGGGATT
B20: AUAUACC (DNA:RNA)
RNA: B1 RNA with C26U, U27A, C28U, G29A, U30C, A31C
DNA 1: CAATCTGAATTCCGGTCTCCC
DNA 2: TGGTGGCTACGACGGGATT

Target: T1, RBFOX1 RRM
Assay: EMSA; HiTS-Eq, 1 nM pool, 10 min; buffer printed only for the single-RNA assays: 10 mM Tris pH 7.5, 150 mM NaCl, 3.4 mM EDTA, 0.001% NP-40, 30 C
Settings: tags: His6 N-terminal (pET28a); label: 5' 32P
Procedure, shortened: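 These values rest on relative association constants, computed from read-count changes of each RNA species versus the control reaction and normalised to the cognate motif. Reads came from free RNA recovered by 8% native PAGE after purified RbFox RRM (wild type or mutant) at increasing concentrations was equilibrated for 10 min in 50 µL with 1 nM of a 5′-radiolabelled pool with 7 randomized nucleotides and DNA-annealed flanks.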

Row | Binder | binding signal
1 | B1 | 0.00301 KA relative to UGCAUGU
2 | B2 | 0.0115 KA relative to UGCAUGU
3 | B3 | 0.00101 KA relative to UGCAUGU
4 | B4 | 0.0174 KA relative to UGCAUGU
5 | B5 | 0.00276 KA relative to UGCAUGU
6 | B6 | 0.0149 KA relative to UGCAUGU
7 | B7 | 0.00388 KA relative to UGCAUGU
8 | B8 | 0.00621 KA relative to UGCAUGU
9 | B9 | 0.00929 KA relative to UGCAUGU
10 | B10 | 0.000474 KA relative to UGCAUGU
11 | B11 | 0.00669 KA relative to UGCAUGU
12 | B12 | 0.00273 KA relative to UGCAUGU
13 | B13 | 0.0275 KA relative to UGCAUGU
14 | B14 | 0.00224 KA relative to UGCAUGU
15 | B15 | 0.00534 KA relative to UGCAUGU
16 | B16 | 0.0162 KA relative to UGCAUGU
17 | B17 | 0.0118 KA relative to UGCAUGU
18 | B18 | 0.00594 KA relative to UGCAUGU
19 | B19 | 0.00205 KA relative to UGCAUGU
20 | B20 | 0.00226 KA relative to UGCAUGU
